Measurements published in patent US20260021193A1, “IMMUNOCONJUGATES AND METHODS” (Immunome, Inc., priority 2022, published 2026).

Legend:
[1] = molecular target: T1, endogenously expressed extracellular ROR-1 protein on JeKo-1 (Homo sapiens, UniProt Q01973); assay: Cell binding saturation assay, JeKo-1 (flow cytometry); conditions: FIGS. 27A-27B
T1 construct: endogenous in cells; host or cells: JeKo-1
Protocol: Cells were washed, stained with secondary antibody and cell binding saturation was detected by flow cytometry and reported as mean fluorescent intensity (MFI).
A cell binding saturation assay was developed to evaluate how well the anti-ROR-1 antibodies developed in Example 22 bound to endogenously expressed extracellular ROR-1 protein on cell lines. […] Briefly, two ROR-1 positive cell lines, JeKo-1 and MDA-MB-468, were incubated in a titration series concentration of each antibody construct. Cells were then washed and subjected to secondary antibody staining and detection by flow cytometry. Mean fluorescence (MFI) was determined by analysis on cytometer software. […] (See FIGS. 27A-27B).

Mouse ROR1 - His = molecular target: T2, Mouse ROR1 - His (Mus musculus, UniProt Q9Z139); assay: SPR binding to Mouse ROR1 - His
T2 construct: His
T2 sequence (Q9Z139 30-937): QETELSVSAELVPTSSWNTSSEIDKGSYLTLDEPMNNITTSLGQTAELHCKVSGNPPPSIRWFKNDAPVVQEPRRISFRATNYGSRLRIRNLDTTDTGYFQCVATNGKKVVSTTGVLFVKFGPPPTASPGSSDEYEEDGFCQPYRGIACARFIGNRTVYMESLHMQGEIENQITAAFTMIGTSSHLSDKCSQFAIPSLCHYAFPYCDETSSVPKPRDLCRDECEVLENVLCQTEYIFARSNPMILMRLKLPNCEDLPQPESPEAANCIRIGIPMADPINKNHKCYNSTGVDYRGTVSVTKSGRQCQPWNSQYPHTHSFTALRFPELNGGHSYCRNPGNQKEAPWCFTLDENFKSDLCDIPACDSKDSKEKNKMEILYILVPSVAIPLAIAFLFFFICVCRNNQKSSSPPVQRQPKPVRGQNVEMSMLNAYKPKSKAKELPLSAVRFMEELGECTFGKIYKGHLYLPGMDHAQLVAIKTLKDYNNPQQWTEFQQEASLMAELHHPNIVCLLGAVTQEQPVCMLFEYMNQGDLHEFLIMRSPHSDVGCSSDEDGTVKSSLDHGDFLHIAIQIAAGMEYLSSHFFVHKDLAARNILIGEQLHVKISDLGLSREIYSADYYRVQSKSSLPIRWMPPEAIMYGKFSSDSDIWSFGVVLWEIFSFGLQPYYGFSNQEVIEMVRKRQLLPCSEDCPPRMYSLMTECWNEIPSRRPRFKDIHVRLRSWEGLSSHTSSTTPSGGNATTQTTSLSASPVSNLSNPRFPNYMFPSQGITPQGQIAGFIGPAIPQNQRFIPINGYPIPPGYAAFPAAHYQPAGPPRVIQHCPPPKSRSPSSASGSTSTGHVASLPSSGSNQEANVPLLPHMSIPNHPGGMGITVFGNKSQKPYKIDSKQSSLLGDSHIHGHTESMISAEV
Protocol: (§1) An initial assessment of antibody developability was performed by AC-SINS to evaluate the potential for self-interaction (FIG. 28).

Hu/Cy/Rh ROR1 - His = molecular target: T3, Hu/Cy/Rh ROR1 - His (Homo sapiens, UniProt Q01973); assay: SPR binding to Hu/Cy/Rh ROR1 - His; design: species or system Human/Cyno/Rhesus
T3 construct: His
Protocol: In these experiments 10 ug/ml of purified clonal protein of Hu/Cy/Rh ROR1-His was covalently coupled to the HC30M chip. Individual dilutions of each antibody at 10 μg/mL were injected over the chip and binding was evaluated by Carterra SPR.
as §1

B1: ATX-P-885: anti-ROR-1 monoclonal antibody developed herein (antibody)
heavy: QVQLQQWGAGLLKPSETLSLTCAVYGGSFSGYYWSWIRQPPGKGLEWIGEINHSGSTNYNPSLKSRVTISVDTSKNQFSLKLSSVTAADTAVYYCAREGVYEDYWGQGTLVTVSSASTKGPSVFPLAPSSKSTSGGTAALGCLVKDYFPEPVTVSWNSGALTSGVHTFPAVLQSSGLYSLSSVVTVPSSSLGTQTYICNVNHKPSNTKVDKRV[human IgG1 Fc not shown]
light: EIVLTQSPATLSLSPGERATLSCRASQSVSNYLAWYQQKPGQAPRLLIYDAYNRATGIPARFSGSGSGTDFTLTISSLEPEDFAVYYCQQRSNWPLTFGQGTRLEIKRTVAAPSVFIFPPSDEQLKSGTASVVCLLNNFYPREAKVQWKVDNALQSGNSQESVTEQDSKDSTYSLSSTLTLSKADYEKHKVYACEVTHQGLSSPVTKSFNRGEC
In the case of B1, the “cell binding saturation compared to UC-961” value [1] is reported as “comparable to the cell binding saturation for UC-961”, the “concentration needed to achieve binding saturation compared to UC-961” value [1] is reported as “improved” and the “Rmax (RU)” value (Mouse ROR1 - His) is reported as 73.5 RU. The “ka” value (Mouse ROR1 - His) was 29200 M⁻¹ s⁻¹, the “kd” value (Mouse ROR1 - His) was 0.00132 s⁻¹ and the “Rmax (RU)” value (Hu/Cy/Rh ROR1 - His) was 341.6 RU. For the same molecule, the “ka” value (Hu/Cy/Rh ROR1 - His) was 270000 M⁻¹ s⁻¹ and the “kd” value (Hu/Cy/Rh ROR1 - His) was 0.00295 s⁻¹.
